# Experimental data from the supplement of paper PMC12217912.
# The other results are listed elsewhere or left out. The full chains were built here from the parent and the listed change. Inactive controls read about 0.05.
# B1: TEV protease; numbered along this chain (parent)
# chain: MGESLFKGPRDYNPISSSICHLTNESDGHTTSLYGIGFGPFIITNKHLFRRNNGTLVVQSLHGVFKVKDTTTLQQHLVDGRDMIIIRMPKDFPPFPQKLKFREPQREERICLVTTNFQTKSMSSMVSDTSCTFPSGDGIFWKHWIQTKDGQCGSPLVSTRDGFIVGIHSASNFTNTNNYFTSVPKNFMELLTNQEAQQWVSGWRLNADSVLWGGHKVFMVKPEEPFQPVKEATQL
# Variants of: B1
# Assay: raw area under fraction-flipped curve 0-4 h after induction (AUC4h, not background-subtracted), DNA-recorder readout of cleavage of the substrate (dimensionless); higher = more cleavage of the substrate by the protease variant
# Conditions: temperature: 34 °C; time window: 0-4 h after rhamnose induction
# Procedure: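 In vivo DNA recorder in E. coli TOP10(DE3) ΔrhaA at 34 °C. Each TEVp single-site mutant (parent TEVp 0) is paired with a single-site variant of the 7-mer TEVs (canonical ENLYFQ|S). The substrate sits between flexible linkers in a Bxb1-sfGFP-TEVs-SsrA fusion, so cleavage stabilises Bxb1 and speeds flipping of a recombination array, read by NGS. The value is the raw area under the fraction-flipped curve over 0-4 h after rhamnose induction (AUC4h), with ≥20 reads per time point. It is not background-subtracted; inactive controls average about 0.047.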
# 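Also: Bxb1 expression induced with 0.2% (w/v) L-rhamnose at OD600 near 0.5, cultures sampled hourly, flipped fraction per protease–substrate barcode pair counted by paired-end Illumina sequencing.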
Variant,area with substrate EALYFQS,area with substrate ECLYFQS,area with substrate EDLYFQS,area with substrate EELYFQS,area with substrate EHLYFQS,area with substrate EILYFQS,area with substrate ELLYFQS,area with substrate EMLYFQS,area with substrate EPLYFQS,area with substrate EQLYFQS,area with substrate ERLYFQS,area with substrate ETLYFQS,area with substrate EVLYFQS,area with substrate EWLYFQS,area with substrate EFLYFQS,area with substrate EGLYFQS,area with substrate EKLYFQS,area with substrate ESLYFQS,area with substrate EYLYFQS
MGESLFKGPRDYEPISSSICHLTNESDGHTTSLYGIGFGPFIITNKHLFRRNNGTLVVQSLHGVFKVKDTTTLQQHLVDGRDMIIIRMPKDFPPFPQKLKFREPQREERICLVTTNFQTKSMSSMVSDTSCTFPSGDGIFWKHWIQTKDGQCGSPLVSTRDGFIVGIHSASNFTNTNNYFTSVPKNFMELLTNQEAQQWVSGWRLNADSVLWGGHKVFMVKPEEPFQPVKEATQL [N13E],0.116,0.0892,0.133,0.115,0.123,0.097,0.137,0.108,0.0927,0.0782,0.108,0.0936,0.101,0.107,–,–,–,–,–
MGESLFKGPRDYIPISSSICHLTNESDGHTTSLYGIGFGPFIITNKHLFRRNNGTLVVQSLHGVFKVKDTTTLQQHLVDGRDMIIIRMPKDFPPFPQKLKFREPQREERICLVTTNFQTKSMSSMVSDTSCTFPSGDGIFWKHWIQTKDGQCGSPLVSTRDGFIVGIHSASNFTNTNNYFTSVPKNFMELLTNQEAQQWVSGWRLNADSVLWGGHKVFMVKPEEPFQPVKEATQL [N13I],0.111,0.107,0.113,–,–,0.0835,0.0857,0.0963,0.104,0.0963,–,0.0996,0.0826,0.076,0.08,0.0943,0.103,0.105,0.0805
MGESLFKGPRDYLPISSSICHLTNESDGHTTSLYGIGFGPFIITNKHLFRRNNGTLVVQSLHGVFKVKDTTTLQQHLVDGRDMIIIRMPKDFPPFPQKLKFREPQREERICLVTTNFQTKSMSSMVSDTSCTFPSGDGIFWKHWIQTKDGQCGSPLVSTRDGFIVGIHSASNFTNTNNYFTSVPKNFMELLTNQEAQQWVSGWRLNADSVLWGGHKVFMVKPEEPFQPVKEATQL [N13L],0.112,0.0778,0.154,0.141,0.107,–,0.126,0.114,0.111,0.134,0.113,–,0.103,0.103,–,–,0.117,0.113,0.117
MGESLFKGPRDYPPISSSICHLTNESDGHTTSLYGIGFGPFIITNKHLFRRNNGTLVVQSLHGVFKVKDTTTLQQHLVDGRDMIIIRMPKDFPPFPQKLKFREPQREERICLVTTNFQTKSMSSMVSDTSCTFPSGDGIFWKHWIQTKDGQCGSPLVSTRDGFIVGIHSASNFTNTNNYFTSVPKNFMELLTNQEAQQWVSGWRLNADSVLWGGHKVFMVKPEEPFQPVKEATQL [N13P],0.0929,0.106,0.138,0.125,0.0874,0.0811,0.0986,0.117,0.121,0.12,0.0862,0.0979,0.102,0.0814,–,0.0972,0.0972,0.0978,0.11
MGESLFKGPRDYNPISSAICHLTNESDGHTTSLYGIGFGPFIITNKHLFRRNNGTLVVQSLHGVFKVKDTTTLQQHLVDGRDMIIIRMPKDFPPFPQKLKFREPQREERICLVTTNFQTKSMSSMVSDTSCTFPSGDGIFWKHWIQTKDGQCGSPLVSTRDGFIVGIHSASNFTNTNNYFTSVPKNFMELLTNQEAQQWVSGWRLNADSVLWGGHKVFMVKPEEPFQPVKEATQL [S18A],0.114,0.117,0.0929,0.09,0.123,0.0933,0.0693,0.108,0.123,0.0964,0.113,–,–,0.104,0.101,–,0.12,0.114,–
MGESLFKGPRDYNPISASICHLTNESDGHTTSLYGIGFGPFIITNKHLFRRNNGTLVVQSLHGVFKVKDTTTLQQHLVDGRDMIIIRMPKDFPPFPQKLKFREPQREERICLVTTNFQTKSMSSMVSDTSCTFPSGDGIFWKHWIQTKDGQCGSPLVSTRDGFIVGIHSASNFTNTNNYFTSVPKNFMELLTNQEAQQWVSGWRLNADSVLWGGHKVFMVKPEEPFQPVKEATQL [S17A],0.145,0.127,0.0957,–,0.112,0.114,–,0.134,–,0.12,0.114,0.0717,0.0887,–,0.134,0.0746,–,0.0893,–
MGESLFKGPRDYNTISSSICHLTNESDGHTTSLYGIGFGPFIITNKHLFRRNNGTLVVQSLHGVFKVKDTTTLQQHLVDGRDMIIIRMPKDFPPFPQKLKFREPQREERICLVTTNFQTKSMSSMVSDTSCTFPSGDGIFWKHWIQTKDGQCGSPLVSTRDGFIVGIHSASNFTNTNNYFTSVPKNFMELLTNQEAQQWVSGWRLNADSVLWGGHKVFMVKPEEPFQPVKEATQL [P14T],0.121,0.0921,0.122,0.11,–,0.0966,0.097,0.106,0.13,0.138,0.108,0.112,0.103,0.0805,0.156,–,0.112,0.105,0.0983
MGESLFKGPRDYNMISSSICHLTNESDGHTTSLYGIGFGPFIITNKHLFRRNNGTLVVQSLHGVFKVKDTTTLQQHLVDGRDMIIIRMPKDFPPFPQKLKFREPQREERICLVTTNFQTKSMSSMVSDTSCTFPSGDGIFWKHWIQTKDGQCGSPLVSTRDGFIVGIHSASNFTNTNNYFTSVPKNFMELLTNQEAQQWVSGWRLNADSVLWGGHKVFMVKPEEPFQPVKEATQL [P14M],0.0877,0.099,0.144,–,0.101,0.106,0.104,–,–,0.148,0.0878,0.148,0.11,0.0916,–,0.137,0.0991,0.113,0.0997
MGESLFKGPRDYNAISSSICHLTNESDGHTTSLYGIGFGPFIITNKHLFRRNNGTLVVQSLHGVFKVKDTTTLQQHLVDGRDMIIIRMPKDFPPFPQKLKFREPQREERICLVTTNFQTKSMSSMVSDTSCTFPSGDGIFWKHWIQTKDGQCGSPLVSTRDGFIVGIHSASNFTNTNNYFTSVPKNFMELLTNQEAQQWVSGWRLNADSVLWGGHKVFMVKPEEPFQPVKEATQL [P14A],0.129,0.116,0.121,0.147,–,0.126,–,–,0.159,0.148,0.103,–,0.0938,0.141,0.112,0.115,–,0.124,0.123
MGESLFKGPRDYNYISSSICHLTNESDGHTTSLYGIGFGPFIITNKHLFRRNNGTLVVQSLHGVFKVKDTTTLQQHLVDGRDMIIIRMPKDFPPFPQKLKFREPQREERICLVTTNFQTKSMSSMVSDTSCTFPSGDGIFWKHWIQTKDGQCGSPLVSTRDGFIVGIHSASNFTNTNNYFTSVPKNFMELLTNQEAQQWVSGWRLNADSVLWGGHKVFMVKPEEPFQPVKEATQL [P14Y],0.107,0.0807,0.103,0.07,–,0.0819,0.0846,0.0952,0.126,0.0997,0.101,0.125,0.0836,0.0784,–,0.0903,0.11,0.0998,–
MGESLFKGPRDYNPISSSKCHLTNESDGHTTSLYGIGFGPFIITNKHLFRRNNGTLVVQSLHGVFKVKDTTTLQQHLVDGRDMIIIRMPKDFPPFPQKLKFREPQREERICLVTTNFQTKSMSSMVSDTSCTFPSGDGIFWKHWIQTKDGQCGSPLVSTRDGFIVGIHSASNFTNTNNYFTSVPKNFMELLTNQEAQQWVSGWRLNADSVLWGGHKVFMVKPEEPFQPVKEATQL [I19K],0.084,0.0706,0.0786,0.0948,–,0.0866,0.0579,–,0.0691,0.0734,0.0597,–,0.067,0.058,–,–,0.104,0.0735,–
MGESLFKGPRDLNPISSSICHLTNESDGHTTSLYGIGFGPFIITNKHLFRRNNGTLVVQSLHGVFKVKDTTTLQQHLVDGRDMIIIRMPKDFPPFPQKLKFREPQREERICLVTTNFQTKSMSSMVSDTSCTFPSGDGIFWKHWIQTKDGQCGSPLVSTRDGFIVGIHSASNFTNTNNYFTSVPKNFMELLTNQEAQQWVSGWRLNADSVLWGGHKVFMVKPEEPFQPVKEATQL [Y12L],0.12,0.121,0.116,0.18,–,0.102,0.069,0.116,–,0.113,0.104,–,–,–,–,–,0.0857,0.116,–
MGESLFKGPRVYNPISSSICHLTNESDGHTTSLYGIGFGPFIITNKHLFRRNNGTLVVQSLHGVFKVKDTTTLQQHLVDGRDMIIIRMPKDFPPFPQKLKFREPQREERICLVTTNFQTKSMSSMVSDTSCTFPSGDGIFWKHWIQTKDGQCGSPLVSTRDGFIVGIHSASNFTNTNNYFTSVPKNFMELLTNQEAQQWVSGWRLNADSVLWGGHKVFMVKPEEPFQPVKEATQL [D11V],0.083,0.0806,0.101,0.129,–,0.0888,0.0572,0.0887,–,0.102,0.0909,0.0721,0.0965,0.0817,0.0668,0.0934,0.117,0.0867,0.0676
MGESLFKGPRDYNPKSSSICHLTNESDGHTTSLYGIGFGPFIITNKHLFRRNNGTLVVQSLHGVFKVKDTTTLQQHLVDGRDMIIIRMPKDFPPFPQKLKFREPQREERICLVTTNFQTKSMSSMVSDTSCTFPSGDGIFWKHWIQTKDGQCGSPLVSTRDGFIVGIHSASNFTNTNNYFTSVPKNFMELLTNQEAQQWVSGWRLNADSVLWGGHKVFMVKPEEPFQPVKEATQL [I15K],0.0692,0.0757,0.0786,0.0698,0.0551,0.0605,0.0629,0.0663,0.0612,0.0805,–,–,0.0554,–,–,0.063,0.057,0.0656,0.0607
MGESLFKGPRDYNPDSSSICHLTNESDGHTTSLYGIGFGPFIITNKHLFRRNNGTLVVQSLHGVFKVKDTTTLQQHLVDGRDMIIIRMPKDFPPFPQKLKFREPQREERICLVTTNFQTKSMSSMVSDTSCTFPSGDGIFWKHWIQTKDGQCGSPLVSTRDGFIVGIHSASNFTNTNNYFTSVPKNFMELLTNQEAQQWVSGWRLNADSVLWGGHKVFMVKPEEPFQPVKEATQL [I15D],0.113,0.0574,0.108,0.0969,0.0921,0.0631,–,–,0.0862,0.0854,0.0725,0.0932,0.0709,0.0622,0.0696,0.066,0.074,0.0821,–
MGESLFKGPRDYNPQSSSICHLTNESDGHTTSLYGIGFGPFIITNKHLFRRNNGTLVVQSLHGVFKVKDTTTLQQHLVDGRDMIIIRMPKDFPPFPQKLKFREPQREERICLVTTNFQTKSMSSMVSDTSCTFPSGDGIFWKHWIQTKDGQCGSPLVSTRDGFIVGIHSASNFTNTNNYFTSVPKNFMELLTNQEAQQWVSGWRLNADSVLWGGHKVFMVKPEEPFQPVKEATQL [I15Q],0.107,0.103,0.0995,0.109,0.106,0.086,–,0.0768,0.097,0.109,0.0919,0.111,0.108,0.109,0.109,0.0959,0.09,0.0964,0.106
MGESLFKGPRDYNPESSSICHLTNESDGHTTSLYGIGFGPFIITNKHLFRRNNGTLVVQSLHGVFKVKDTTTLQQHLVDGRDMIIIRMPKDFPPFPQKLKFREPQREERICLVTTNFQTKSMSSMVSDTSCTFPSGDGIFWKHWIQTKDGQCGSPLVSTRDGFIVGIHSASNFTNTNNYFTSVPKNFMELLTNQEAQQWVSGWRLNADSVLWGGHKVFMVKPEEPFQPVKEATQL [I15E],0.0825,0.0728,0.099,0.0943,0.0591,0.0656,0.0317,–,0.087,0.0438,0.0725,0.092,0.076,0.0659,–,0.0844,0.0897,0.0854,0.0857
